In PubChem BioAssay AID686978 (National Center for Advancing Translational Sciences (NCATS), 2013):
About 64,000 (15%) of roughly 420,000 compounds were called active. Inconclusive results, whose numbers are uncertain, are shown with a selection of clear calls. Calls come from the whole dose curve; as a rule, active = well fitted inhibition curve with a large enough effect; inconclusive = small, poorly fitted or top-dose-only effect; inactive = flat fitted curve, though single readings scatter. Potencies of inconclusive entries are left out as doubtful fits.

Experiment: qHTS for Inhibitors of human tyrosyl-DNA phosphodiesterase 1 (TDP1): qHTS in cells in absence of CPT; note: nearly all actives have a fitted effect of over 55% in size
Details: DT40 Tdp1-/- hTDP1 cells, no CPT, ATP luminescence, 48 h; series mostly up to 46.2 µM
How it was run: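 Stably hTDP1-transfected Tdp1-null chicken DT40 cells were treated with library compounds minus camptothecin and grown for at least 48 hr at 37 °C, after which cellular ATP was quantified by luminescence.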
Potency is the fitted concentration of half-maximal effect; tags give direction and shape of the fitted curve.

Structure (SMILES) | Potency
C/C(=N\Nc1nc(C(C)(C)C)cs1)c1ccccc1 | active: 23.1 µM
Cc1ccc(S(=O)(=O)N2CCOCC2)cc1NC(=O)COC(=O)/C=C/c1ccc(F)cc1 | inconclusive [inhibitor, single point]
CCOc1ccc(S(=O)(=O)N(CC)CC)cc1N | inactive
Nc1c(C(=O)NCc2ccc(F)cc2)c2nc3ccccc3nc2n1CCCN1CCOCC1 | active: 18.4 µM
Cc1ccc(CNC(=O)CSc2c3c(nc4ccc(Cl)cc24)CCCC3)cc1 | inconclusive [inhibitor, single point]
CCC(CC)C(=O)N=C1SC2CS(=O)(=O)CC2N1CCc1ccc(OC)cc1 (stereo not drawn) | inconclusive [inhibitor, partial curve]
Cc1c(C2=CCN(S(=O)(=O)c3ccc(Br)cc3)CC2)c2ccccc2n1CC(=O)N1CCCC1 | inconclusive [inhibitor, single point]
O=C(NCc1ccco1)c1cc(-c2ccccc2)nn1CC1CC(c2cccnc2)=NO1 (stereo not drawn) | inconclusive [inhibitor, single point]
CC(C)(C)c1ccc(C(=O)N2CCN(C(=O)c3ccco3)CC2)cc1 | inconclusive [inhibitor, partial curve]
CCOc1cc(/C=N/Nc2nc(N3CCCC3)nc(N3CCCC3)n2)ccc1O | inconclusive [inhibitor, partial curve]
O=C(CCCCCn1c(=S)[nH]c2cc3c(cc2c1=O)OCO3)N1CCN(c2ccc(F)cc2)CC1 | inconclusive [inhibitor, partial curve]
Cc1ccc(-n2cc(CN3CCCN(C=O)CC3)c(-c3ccc(F)cc3)n2)cc1 | inconclusive [inhibitor, single point]
CSc1nc(Sc2cccc(Cl)c2)c2ccccc2n1 | inconclusive [inhibitor, partial curve]
CC(C)C[C@H]1CNC(=O)C(=O)N1C[C@@H]1CCCN1C[C@H](CC(C)C)N1C[C@H](Cc2ccc(O)cc2)N(CCc2ccccc2)C(=O)C1=O | inactive
COc1ccc(NC(=O)CN(C)C(=O)c2cn(-c3ccccc3)nc2-c2cccnc2)cc1 | inconclusive [inhibitor, single point]
CSCCNCc1cn(-c2ccc(F)cc2F)nc1-c1ccccc1C | inconclusive [inhibitor, single point]
Cc1nnc(NC(=O)CCC2CCCCC2)s1 | inactive
CC(NC(=O)c1ccc(=O)oc1)c1ccccc1 (stereo not drawn) | inconclusive [inhibitor, partial curve]
